In all, about 45,000 compounds went through this assay and about 200 (0.44%) were called active. Not shown: some 7% with an inconclusive outcome. Calls follow the shape of the dose curve; as a rule, active = well fitted activation curve with a large enough effect; inconclusive = small, poorly fitted or top-dose-only effect; inactive = no such curve, though single readings can be large or run the other way. Some of the results follow.

The source of these data is PubChem BioAssay AID1347073 (National Center for Advancing Translational Sciences (NCATS), 2019).
Potency is read from the fitted curve at half-maximal effect.

The assay in a line: qHTS of TDP-43 Inhibitors: NCGC Sytravon Library Screen. Also: nearly all actives have a fitted effect of over 55% in size. As to growth rescue (activation): 0% is about no effect. As to conditions: yeast TDP-43 toxicity rescue, BacTiter-Glo growth, 24 h; series mostly up to 46.1 µM; growth rescue (activation): at the top concentration. The procedure, abridged:
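TDP-43-expressing yeast, pregrown in raffinose, seeded at OD600 0.02 in galactose medium with compound for 24 hr at 30 deg C. Growth read by BacTiter-Glo luminescence, so rescue of toxicity appears as activation.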
In the case of `Fc1ccccc1NC(=S)N1CCN(Cc2ccccc2)CC1`, the “growth rescue (activation)” value is inactive: 4.66%.
With `CCOC(=O)N1CCN(C(=S)NC(=O)c2cccc(OC)c2)CC1`, the “growth rescue (activation)” value is inactive: -20.1%.
Same read-out and setting: then `COC(=O)c1ccc(CN2CCC(n3nccc3NC(=O)C3CCCC3)CC2)cc1`, with inactive: 8.67%.
Take `CC(=O)c1cccc(OCC(O)CNCC2COc3ccccc3O2)c1` (centres undefined): the “growth rescue (activation)” value is inactive: 9.66%.
`CCc1nc2ccc(C(=O)N(C)Cc3ccco3)cn2c1N(CC)C(=O)NCCc1ccccc1`: the “growth rescue (activation)” value is inactive: 0.0917%.
As for `COc1ccc2oc(=O)c(C(=O)Nc3cccc(C)c3)cc2c1`, the “growth rescue (activation)” value was inactive: -0.459%.
In the case of `Cc1cnc(C(=O)OCc2cc(=O)n3c(C)cccc3n2)cn1`, the “growth rescue (activation)” value is inactive: 6.53%.
Consider `COC(=O)c1nc2nc(C)cc(=O)n2[nH]1`, for which the “growth rescue (activation)” value was inactive: 18.2%.
In the case of `CC1CN(c2ccc([N+](=O)[O-])cc2C#N)CC(C)O1` (centres undefined), the “growth rescue (activation)” value is inactive: -1.46%.
For the compound `COc1ccc(CN2CCNC(=O)C2CC(=O)NCc2cccc(C)n2)c(OC)c1` (centres undefined), the “growth rescue (activation)” value is inactive: -5.45%.
For `O=C(N1CCCC1)C(F)(F)Oc1ccc(F)cc1`, the “growth rescue (activation)” value is inactive: 13.7%.
For `CCCNC(=O)c1ccc(C)c(NC(=O)C2=C(C)OCCS2)c1`, the “growth rescue (activation)” value is inactive: 3.52%.
Turning to `O=C(NCCCN1CCOCC1)/C(=C/c1ccco1)NC(=O)c1ccccc1`, the “growth rescue (activation)” value is inactive: -2.21%.
Regarding `Cc1ccc(NC(=O)COC(=O)C2C3CC4OC(=O)C2C4C3)cc1Cl` (centres undefined), the “growth rescue (activation)” value is inactive: 6.86%.
Consider `O=C(CC(=O)c1ccccc1)Nc1cccnc1`, for which the “growth rescue (activation)” value is inactive: 1.36%.
As to `O=C(OCc1ccc(F)cc1)c1ccc2c(c1)-c1ccccc1C2=O`, the “growth rescue (activation)” value is inactive: 13.6%.
In the case of `COc1ccc(C=C2C=C(C(C)(C)C)C(=O)C(C(C)(C)C)=C2)cc1OC`, the “growth rescue (activation)” value was inactive: 11.3%.
On the same count and under the same terms, then `O=C(CN1C(=O)c2ccccc2S1(=O)=O)N1CCCCC1`, with inactive: -19%; and `CCN1CCN(C(=S)NC(C)c2ccccc2)CC1` (centres undefined), with inactive: 5.65%.
The same measure, in the same setting: to `CCC(=O)N1CCc2cc(Br)cc(S(=O)(=O)N3CCCC(C(=O)NC(C)(C)C)C3)c21` (centres undefined) belongs inactive: 10.1%.
Take `NC(=S)N/N=C/c1ccc(-c2ccc(Cl)c(Cl)c2)o1`: the Potency is active: 11.2 µM.
For the compound `Cc1[nH]nc2c1C(c1ccc(N(C)C)cc1)C1=C(CC(C)(C)CC1=O)N2` (centres undefined), the “growth rescue (activation)” value was inactive: 0.422%.
As to `O=C(CSc1ccc([N+](=O)[O-])cn1)Nc1ccc2[nH]c(=O)[nH]c2c1`, the “growth rescue (activation)” value was inactive: 10.2%.
With `Cc1nc2nc[nH]n2c(=O)c1NS(=O)(=O)c1ccc(C(C)(C)C)cc1`, the “growth rescue (activation)” value was inactive: -16.3%.
With `NC(=O)c1cc(S(=O)(=O)Nc2cccc(Cl)c2)cs1`, the “growth rescue (activation)” value was inactive: 3.2%.
Same read-out and setting: to `CCc1ccc(Sc2cc(C(=O)NCCN3CCOCC3)c3ccccc3n2)cc1` belongs inactive: -15%; to `COc1ccc(N2CCN(c3ccc(S(=O)(=O)N(C(C)C)C(C)C)cn3)CC2)cc1`, inactive: -7.7%; to `O=C(O)CSc1nnc(-c2ccc(Cl)cc2Cl)n1-c1ccccc1`, inactive: 2.83%.
Turning to `CCn1cc(C(=O)O)c(=O)c2cnc(N3CCN(C(=S)NC(=O)c4ccc(Cl)cc4Cl)CC3)nc21`, the “growth rescue (activation)” value is inactive: -25.6%.
In the case of `CCNNC(=O)C(O)(c1cccc(C)c1)c1cccc(C)c1`, the “growth rescue (activation)” value is inactive: 27.1%.
Consider `O=C(O)C/C(=C\c1cc(Br)cs1)c1nc2ccccc2o1`, for which the “growth rescue (activation)” value was inactive: -81.5%.
Take `Cc1cccc(C(=O)OCC(=O)NC23CC4CC(CC(C4)C2)C3)c1O`: the “growth rescue (activation)” value was inactive: -38.3%.
For the compound `O=C(CCc1nnc(CCCCc2ccccc2)o1)NCc1cccc(F)c1`, the “growth rescue (activation)” value is inactive: 7.83%.
As for `Cc1ccc(NC(=O)C2C3C=CC4(O3)C2C(=O)N(CCCN2CCCCC2)C4C(=O)NC2CCCCC2)cc1Cl` (centres undefined), the “growth rescue (activation)” value is inactive: 3.78%.
Turning to `CC(C)(O)C#Cc1ccc(C(=O)NCCc2ccc(S(N)(=O)=O)cc2)cc1`, the “growth rescue (activation)” value was inactive: 13.5%.
With `C/C(CCc1oc2ccc(Br)cc2c1-c1ccc(C)o1)=N/O`, the “growth rescue (activation)” value is inactive: 25.4%.
Regarding `C=C[C@]12CC[C@H](OC(C)=O)CC1=CCC1C2CC[C@@]2(C)C1CCC21OCCO1` (some centres undefined), the “growth rescue (activation)” value is inactive: 15.6%.
On the same count and under the same terms, to `COc1ccc(C(O)c2ncc(-c3ccccc3Cl)[nH]2)cc1` (centres undefined) belongs inactive: 3.49%; to `CCN(CC)c1ccc([N+](=O)[O-])cc1C(=O)N1CCOCC1`, inactive: 7.65%; to `COc1cccc(CN(C)CC(=O)NCc2ccccc2Cl)c1`, inactive: 10.6%.
For the compound `COc1ccc(CCNc2nc(-c3sc(N)nc3C)cs2)cc1OC`, the “growth rescue (activation)” value is inactive: 16.7%.
On the same count and under the same terms, then `OC(c1ccc(-c2ccccc2)cc1)c1ncc(-c2ccccc2)[nH]1` (centres undefined), with inactive: 3.44%; and `Cc1ccc(NC(=O)C2CCN(S(=O)(=O)c3c(C)noc3/C=C/c3ccco3)CC2)nc1`, with inactive: -1.61%.
On to `S=C(Nc1ccccc1)N1CCn2c(nc3ccccc32)C1`, for which the “growth rescue (activation)” value is inactive: 2.88%.
Consider `NC(=O)[C@@H]1CCCN1C(=O)c1cc(COc2ccc3c(c2)CCCC3)on1`, for which the “growth rescue (activation)” value is inactive: 16.4%.
With `CCOC(=O)COc1ccccc1/C=N/O`, the “growth rescue (activation)” value was inactive: -0.038%.
For the compound `O=C(/C=C/c1ccccc1Cl)NNC(=O)c1cccs1`, the “growth rescue (activation)” value is inactive: -17.5%.
On the same count and under the same terms, then `Cc1ccc(N2CC(C(=O)Nc3ccc4c(c3)OCCO4)CC2=O)cc1C` (centres undefined), with inactive: 10.4%; and `O=C(O)/C=C/C(=O)OC1CC2CCC1C2` (centres undefined), with inactive: 20.4%; and `COc1cc(NC(=O)CN2CCN(c3ccccc3O)CC2)c(C)cc1[N+](=O)[O-]`, with inactive: 3.04%.
For `Cc1nn(-c2ccccc2)c2c1cc1c(=O)n(C)c(=O)nc-1n2-c1ccccc1F`, the “growth rescue (activation)” value is inactive: 5.36%.
On the same count and under the same terms, to `COc1cccc(CNC(=O)CSc2nnc3c(n2)[nH]c2ccc(C)cc23)c1` belongs inactive: 14.7%.
With `CCOc1ccccc1NC(=O)CCS(=O)(=O)c1cccs1`, the “growth rescue (activation)” value was inactive: 8.89%.
Regarding `Cc1cc(C(=O)NCc2cccc(Cl)c2)c2ccccc2n1`, the “growth rescue (activation)” value was inactive: 25.5%.
